Out of some 48,000 compounds screened, about 450 (0.94%) were called active. Another 19% or so got no clear call; they are omitted. Calls follow the shape of the dose curve; as a rule, active = well fitted inhibition curve with a large enough effect; inconclusive = small, poorly fitted or top-dose-only effect; inactive = no such curve, though single readings can be large or run the other way. This is one part of the list.
Experiment: Primary qHTS for Identification of Small Molecule Inhibitors of Huntingtin Promoter Activity; also: nearly all actives have a fitted effect of over 50% in size
Settings: HEK293 HTT promoter firefly luciferase reporter (activity 0% = vehicle and -100% = no light), 24 h; series mostly up to 57.5 µM; activity change, negative = inhibition: at the top concentration
Method in brief: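 Luminescence was read after Dual-Glo reagent and a 10 min room-temperature incubation. Values were normalized to vehicle (0% activity) and zero RLU (-100% activity). Reporter HEK293 cells had been exposed to compounds (up to 57.5 uM final) for 24 h.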

Activity change, negative = inhibition, inactive:
O=C(NCc1cccc(Cl)c1)c1cnc(N2CCCCC2)c2ccccc12 -4.35%
COC(=O)c1cccc(Nc2c(-c3ccc(SC)cc3)nc3nc[nH]n23)c1 28%
CCc1ccc(C2N=C(N)Nc3nc4ccccc4n32)cc1 (stereo not given) -7.78%
Cc1cccc(N2CCN(c3ncnc4onc(C)c34)CC2)c1C -12.7%
Cc1ccc(-n2ncc(C(=O)NCCc3ccsc3)c2C2CCN(C(=O)OC(C)(C)C)CC2)c(C)c1 -26.9%
O=C(CCCCCn1c(=O)[nH]c2ccccc2c1=O)NCCc1ccccc1 -18.3%
COC(=O)[C@@H]1[C@H]2C[C@@H]3c4[nH]c5ccccc5c4CCN3C[C@@H]2CC[C@@H]1O 1.11%
COc1ccc(Cl)cc1NC(=O)CN(c1cccc(C)c1C)S(C)(=O)=O -18.2%
Cc1cccc(S(=O)(=O)c2cn(Cc3ccc(F)cc3)c3cc(N4CCCCC4)c(F)cc3c2=O)c1 -26.8%
CCc1ccc(CNC(=O)CN2C(=O)CSc3ccc(S(=O)(=O)N4CCOCC4)cc32)cc1 1.47%
COc1cccc(C(=O)N(Cc2ccc(N(C)C)cc2)Cc2ccco2)c1 -23.4%
O=C(CSc1nc2c([nH]c3ccccc32)c(=O)n1-c1ccc(Cl)cc1)NCc1ccccc1 -18.7%
CCc1ccc(S(=O)(=O)NCc2cccn2Cc2cccc(C)c2)cc1 -13.4%
CC1=C(C(=O)Nc2cc(Cl)ccc2C)C(c2ccccc2F)n2ncnc2N1 (stereo not given) -4.91%
CN1CCN(C(CNC(=O)C(=O)Nc2ccccc2C#N)c2ccc3c(c2)OCO3)CC1 (stereo not given) -4.92%
CCn1c(=O)c(=O)n(CC)c2cc(N3CCCCC3)c(NC(=O)c3ccc(OC)c(OC)c3)cc21 20.4%
COc1cc(C(=O)Nc2sc3c(c2C(N)=O)CCC(C)C3)cc(OC)c1OC (stereo not given) 3.84%
Cc1ccc2sc(N(CCCN(C)C)C(=O)c3ccco3)nc2c1C -19.5%
COc1ccc(CCNC(=O)CSc2cc(=O)n(C)c3ccccc23)cc1OC -8.54%
CCCNC(=O)C1CCC(Cn2c(=O)c3sccc3n(CC(=O)N(CC)CC)c2=O)CC1 (stereo not given) 2.49%
COc1ccc(NC(=O)Cn2nnnc2-c2ccccc2F)c(C)c1 -4.98%
Cc1ccc(-n2nc(C(=O)N3CCCCC3)c(=O)n(C)c2=O)cc1 -2.23%
CCCN(CCC)CCNC(=O)CS(=O)Cc1nc(-c2ccc(OC)c(OC)c2)oc1C (stereo not given) -4.3%
NCC(=O)O 4.19% [at 25.2 µM]
COc1ccc(CN2C(=O)N(c3cccc(C)c3)C(=O)C2CC(=O)Nc2ccc(F)cc2)cc1OC (stereo not given) -9.14%
CN(Cc1ccccc1)C(=O)C(=O)Nc1ccc2nc3n(c(=O)c2c1)CCCCC3 -8.21%
COc1ccc(-n2c(=O)c3ccc(C(=O)NCc4ccc(C)cc4)cc3n(CC(=O)Nc3cccc(F)c3)c2=O)cc1 -19.5%
Cc1ccc(CNC(=O)c2cc3cc(C)ccc3n2C)cc1 -23.1%
CNc1ccc(-c2nc(-c3ccccn3)no2)cc1[N+](=O)[O-] 50%
Cc1ccc(NC(=O)CN2C(=O)COc3ccc(S(=O)(=O)N4CCCCC4)cc32)cc1Cl -14.8%
CCOC(=O)c1cc(NC(=O)c2ccc(C)cc2)c(=O)n2c1oc1ccccc12 -7.11%
COCCCNC(=O)Cn1c(=O)n(-c2ccccc2)c(=O)c2c1c1cc(OC)ccc1n2C -14.6%
COc1ccc(Nc2ncnc3scc(-c4ccc(F)cc4)c23)cc1 -16.7%
CC(=O)Nc1ccc2nc(SCCOc3ccc(C)cc3)sc2c1 -6.44%
COc1ccc(NC(=O)c2sc3nc(C)c(C(=O)Nc4ccc(C)cc4C)c(-c4sccc4C)c3c2N)cc1 -19.2%
CC1CCc2c(N3CCC(O)CC3)c(F)cc3c(=O)c(C(=O)O)cn1c23 (stereo not given) -5.97%
CCc1c(CN2CCN(c3ccc(F)cc3)CC2)csc1C -15.5%
COc1ccc(C)cc1Nc1nc2c(S(=O)(=O)c3cc(C)ccc3C)nnn2c2ccsc12 1.62%
Cc1ccc(CN2CCC(CNC(=O)Nc3ccccc3F)CC2)cc1 -11.8%
O=C(COc1ccc(Cl)cc1)NCCc1csc(-c2ccc(C(F)(F)F)cc2)n1 -23.4%
COCCNc1nc2c(S(=O)(=O)c3ccccc3)nnn2c2ccc(Cl)cc12 -5.75%
COc1cc2c(cc1NC(=O)COc1cc(C)cc(C)c1)oc1ccccc12 -10.1%
COc1ccc(Cn2c(CCC(=O)Nc3ccc(Br)c(C)c3)nc3cccnc32)cc1 -18.4%
O=C(Cn1nnc(-c2ccc(C(F)(F)F)cc2)n1)NCCc1ccccc1 -6.36%
Cc1cc(C)cc(NS(=O)(=O)c2cc3[nH]c(=O)c(=O)[nH]c3cc2C)c1 -4.7%
COc1cc(OC)c(C(=O)NCc2nc(-c3ccccc3)no2)cc1OC -18.6%
CCCC(=O)Oc1c(Sc2ccc(C)cc2)c(C)nn1-c1ccccc1 -16.7%
CCc1ccc(CN(Cc2ccco2)c2cnc(S(C)(=O)=O)nc2C(=O)Nc2ccc(C)c(Cl)c2)cc1 -11.8%
Cc1ccc(NC(=O)CN(C)S(=O)(=O)c2cccc3cccnc23)c(C)c1 -7.12%
Cc1nn2c(=O)cc(COC(=O)c3ccc(NC(=O)CCc4ccccc4)cc3)nc2s1 13.4%
CCc1noc(-c2ccc(N3CCC(C)CC3)c([N+](=O)[O-])c2)n1 6.7%
CCC(Sc1nc2cc3c(cc2c(=O)n1CCCCCC(=O)NCc1ccc2c(c1)OCO2)OCO3)C(=O)NCCCOC (stereo not given) -11.3%
CC(C)C(=O)Nc1ccccc1C(=O)OCc1cc(=O)n2nc(C3CC3)sc2n1 -16.2%
O=C(Nc1cccc(Br)c1)Nc1nc2c(s1)CCCCCC2 -13.4%
O=C(CN1C(=O)c2cccnc2Oc2ccc(Cl)cc21)NCCCN1CCCCC1 1.96%
Cc1cccc(-c2nc3cc(NC(=O)c4ccc(OCC(C)C)cc4)ccc3o2)c1 -6.48%
Cc1ccn2c(c1)nc(=O)c1cc(S(=O)(=O)N3CCCCC3)ccc12 -14.5%
CCOc1ccc(NC(=O)NC(C)c2c(-n3cccc3)sc3c2CCN(CC)C3)cc1 (stereo not given) -16.5%
COc1cccc(CCNC(=O)c2ccc(Cn3c(SCc4ccccc4)nc4cccnc43)cc2)c1 -17.1%
O=C(Nc1ccc2nc(SCCOc3ccccc3)sc2c1)c1ccco1 -10.3%
Cc1cccn2c(=O)c3cc(C(=O)NC(C)C)n(C)c3nc12 2.12%
Cc1ccccc1NC(=O)C1CCN(C(=O)c2ccc(F)cc2)CC1 -9.77%
CCOc1ccc(NC(=O)Cn2cc(C(=O)c3ccc(F)cc3)c(=O)c3cc4c(cc32)OCO4)cc1 -2.45%
Cc1ccc(-n2nnnc2CNC(=O)c2ccc(F)cc2)cc1C 0.879%
COc1ccccc1-c1nn2c(=O)cc(CN3CCN(S(=O)(=O)c4ccc(C)cc4)CC3)nc2s1 -8.91%
Cc1cc(=O)n(-c2ccccc2)n1C 3.9%
CCOC(=O)c1ccc(NC(=O)C2Cc3ccccc3C(=O)O2)cc1 (stereo not given) 35.4%
Brc1ccc(CNCCCSc2nnnn2-c2ccccc2)cc1 1.26%
Cc1cccc(-c2noc(CNC(=O)c3ccco3)n2)c1 1.42%
CC(=O)Nc1ccc(C)cc1-c1nc2ccccc2n(CC(=O)c2ccc(Cl)cc2)c1=O -5.41%
CC(=O)N(Cc1cccnc1)c1nc2ccc(F)cc2s1 -14%
COc1cccc2cc(-c3cn4c(n3)sc3cc(F)ccc34)c(=O)oc12 -4.06%
CCOc1ccccc1C(=O)N1CCN(CCc2ccccn2)CC1 3.57%
Cc1ccc(CNC(=O)NC2COc3ccccc3C2)cc1 (stereo not given) 3.51%
Cc1ccc(C2=Nc3ccccc3N(CC(=O)Nc3ccccc3C)C(=O)C2)cc1C 61.9%
Cc1c(Cl)cccc1NC(=O)Cn1nc(C(F)(F)F)c2c1CCC2 -18.4%
Cc1cc(C)c(NC(=O)Cn2c(=O)n(CCc3ccccc3)c(=O)c3ccccc32)c(C)c1 -0.66%
Cc1ccc(N2CCn3c2nc2c3c(=O)n(CCCc3ccccc3)c(=O)n2C)cc1 -5.02%
Clc1ccc(COC(Cn2ccnc2)c2ccc(Cl)cc2Cl)c(Cl)c1 (stereo not given) -20.9%
COc1ccc(OC)c(CNC(=O)c2ccccc2NC(=O)c2nsc3ccccc23)c1 2.65%
Cc1cc(C)n(-c2nc3ccccc3nc2Nc2cccc(C(=O)NCCc3ccccc3)c2)n1 -5.79%
Cc1ccc(NC(=O)C2CCCN(S(=O)(=O)c3cccc4cccnc34)C2)c(Br)c1 (stereo not given) -27.8%
CC1=C(C(=O)Nc2ccccc2)C(c2cccc(O)c2)n2nc(-c3ccccc3Cl)nc2N1 (stereo not given) -9.72%
Cc1onc(-c2ccccc2Cl)c1C(=O)Oc1ccc(Br)cc1 -9.23%
C#CCn1c(/C=C/c2ccc(Cl)cc2)nc2ccccc21 14.3%
CCN(c1ccc(OC)cc1)S(=O)(=O)c1nnc(NC(=O)COc2ccc(F)cc2)s1 -20.5%
CC(C)CC(=O)NCC(c1ccc2c(c1)OCO2)N1CCN(c2ccccc2F)CC1 (stereo not given) -12.2%
Cc1ccccc1N(C)C(=O)c1noc2c1COc1ccccc1-2 39.5%
CCCN(CCc1cccs1)[C@H]1CCc2c(O)cccc2C1 3.98%
O=C(CCn1c(=O)c2cccn2c2cccnc21)NCc1ccccc1Br 6.14%
CCC(=O)Nc1ccc(C)cc1-c1nc2ccccc2n(C(C)C(=O)Nc2ccccc2CC)c1=O (stereo not given) -22.7%
CCC(CC)C(=O)Nc1ccc(C(=O)OCc2cc(=O)n3nc(C4CC4)sc3n2)cc1 -4.88%
Cc1ccc(-n2nc(C(=O)N3CCN(c4ccccc4F)CC3)c3c4ccccc4n(C)c3c2=O)cc1 -7.57%
O=C(NCc1ccccc1Cl)c1cccn1-c1nnc(N2CCCCC2)s1 -26.1%
CCC(C(=O)N1CCN(c2cc(Cl)ccc2C)CC1)n1nc(C)c2sc3ccccc3c2c1=O (stereo not given) -0.226%
CCN(CC)CCCNC(=O)CCCn1c(=O)[nH]c2ccc(Br)cc2c1=O -4.61%
CC(=O)c1ccccc1NS(=O)(=O)c1cc2c(cc1C)NC(=O)CO2 15.4%
Fc1cccc(Cl)c1CNc1n[nH]c(-c2ccco2)n1 47%
Cc1ccc(Cl)cc1N1CCN(C(=O)c2cccn2-c2nnc(N3CCCCC3)s2)CC1 -53.2%
COc1cc(Cl)ccc1OC(=O)c1cn(-c2ccccc2OC)c(=O)c2ccccc12 -6.32%

— PubChem BioAssay AID1508623 (National Center for Advancing Translational Sciences (NCATS), 2021)
